The results in this text go back to publication PMC4336329 (PLoS ONE, 2015).

The campaign covered roughly 310,000 compounds. About 2,200 (0.71%) showed an effect of 50% or more. The effect is printed as a negative number. Some of the results follow.

The target in this assay is human ether-à-go-go-related gene (hERG) potassium channel (human, UniProt Q12809). The assay can be described thus: primary screen, population patch clamp on CHO cells stably expressing hERG.
Sequence of human ether-à-go-go-related gene (hERG) potassium channel (Q12809 whole entry, looked up): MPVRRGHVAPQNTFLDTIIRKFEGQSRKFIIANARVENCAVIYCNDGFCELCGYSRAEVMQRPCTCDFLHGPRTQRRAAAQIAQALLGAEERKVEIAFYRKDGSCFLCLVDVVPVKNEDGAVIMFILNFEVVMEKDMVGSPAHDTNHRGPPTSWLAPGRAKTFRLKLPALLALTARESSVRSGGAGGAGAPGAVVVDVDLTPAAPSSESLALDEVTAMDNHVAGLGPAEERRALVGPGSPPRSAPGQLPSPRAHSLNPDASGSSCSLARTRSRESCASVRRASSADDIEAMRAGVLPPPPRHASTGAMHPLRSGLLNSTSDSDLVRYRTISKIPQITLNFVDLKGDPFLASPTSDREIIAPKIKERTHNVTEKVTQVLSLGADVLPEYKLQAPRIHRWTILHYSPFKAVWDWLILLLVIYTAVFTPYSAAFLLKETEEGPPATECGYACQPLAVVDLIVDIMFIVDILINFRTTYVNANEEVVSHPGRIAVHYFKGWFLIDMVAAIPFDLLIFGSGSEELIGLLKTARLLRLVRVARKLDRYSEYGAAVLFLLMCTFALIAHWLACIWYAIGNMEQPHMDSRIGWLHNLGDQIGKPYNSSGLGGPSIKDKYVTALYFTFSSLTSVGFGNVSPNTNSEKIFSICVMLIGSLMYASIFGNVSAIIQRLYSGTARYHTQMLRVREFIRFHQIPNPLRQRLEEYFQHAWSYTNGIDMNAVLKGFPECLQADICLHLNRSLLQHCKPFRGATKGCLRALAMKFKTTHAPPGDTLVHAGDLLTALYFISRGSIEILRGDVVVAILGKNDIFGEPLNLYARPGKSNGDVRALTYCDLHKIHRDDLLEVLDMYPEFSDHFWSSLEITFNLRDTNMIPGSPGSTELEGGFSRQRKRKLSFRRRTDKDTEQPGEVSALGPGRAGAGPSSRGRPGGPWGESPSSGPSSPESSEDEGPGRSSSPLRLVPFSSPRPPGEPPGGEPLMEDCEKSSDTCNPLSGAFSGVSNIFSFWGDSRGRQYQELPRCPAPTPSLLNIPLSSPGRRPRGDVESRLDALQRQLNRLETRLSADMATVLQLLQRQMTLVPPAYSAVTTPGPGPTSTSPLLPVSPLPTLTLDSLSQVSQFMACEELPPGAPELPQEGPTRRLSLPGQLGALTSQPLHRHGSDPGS
As for `CCC(CC)C(=O)NCc1ccccc1OC`, the “hERG current change (%, negative = inhibition) at 1uM” value was 2.6%. In the case of `CCc1ccc(NC(=O)CC2C(=O)NCCN2C(=S)Nc2ccccc2)cc1` (stereo not shown), the “hERG current change (%, negative = inhibition) at 1uM” value was 1.79%. `COc1ccc(OC)c(CN2CCC(Cc3ccccc3)CC2)c1.O=C(O)C(=O)O`: the “hERG current change (%, negative = inhibition) at 1uM” value is given as -61.9%. As for `Cc1ccc(NC(=O)C(Cc2ccccc2)NC(=O)c2ccco2)cc1` (stereo not shown), the “hERG current change (%, negative = inhibition) at 1uM” value is -4.32%. `OC1CCCN(C(=S)NCc2ccccc2)C1` (stereo not shown): the “hERG current change (%, negative = inhibition) at 1uM” value was 5.3%. On to `O=C(COc1c(Br)cc(Br)c2cccnc12)N1CCCCC1`, for which the “hERG current change (%, negative = inhibition) at 1uM” value is listed as -3.18%. With `CCCOc1ccc(N2C(=O)CC(NCCNc3ccc(S(=O)(=O)CC)cc3)C2=O)cc1` (stereo not shown) the figure was -10.9%; with `COc1ccc(CCNC(=O)COC(=O)c2ccc(Br)o2)cc1OC`, 6.76%. Consider `CC(=O)c1cnc(N(C)C)s1`, for which the “hERG current change (%, negative = inhibition) at 1uM” value amounted to 8.54%. As for `Cc1ccc(NC(=O)COC(=O)c2cccc(N3C(=O)c4ccccc4C3=O)c2)cc1`, the “hERG current change (%, negative = inhibition) at 1uM” value is 21.1%.

Take `O=C(Nc1ccc2nc3n(c(=O)c2c1)CCCCC3)C(=O)N1CCN(c2ccc(F)cc2)CC1`: the “hERG current change (%, negative = inhibition) at 1uM” value was found to be 15.8%.

Take `CCOC(=O)Cn1c(CN2CCN(C(=O)c3ccco3)CC2)nc2c1c(=O)n(C)c(=O)n2C`: the “hERG current change (%, negative = inhibition) at 1uM” value was determined as 12.8%. On to `O=C(COC(=O)CSCc1ccccc1)NCc1ccccc1`, for which the “hERG current change (%, negative = inhibition) at 1uM” value was found to be 10.4%.

As for `Cc1[nH][nH]c(=O)c1C=NCc1cccs1`, the “hERG current change (%, negative = inhibition) at 1uM” value was determined as 9.49%.

As for `Cc1ccc(S(=O)(=O)Cc2ccc([N+](=O)[O-])cc2)cc1`, the “hERG current change (%, negative = inhibition) at 1uM” value is 9.79%. Consider `O=C(NC1CCCCCC1)C(=O)NC1CCCC1`, for which the “hERG current change (%, negative = inhibition) at 1uM” value stood at 8.6%.

Take `CCCc1cc(=O)oc2c(C)c(OCC(=O)NCc3ccccn3)ccc12`: the “hERG current change (%, negative = inhibition) at 1uM” value turned out to be 9.5%. With `CC(C)c1ccc(NC(=S)N2CCN(Cc3ccccc3)CC2)cc1` the figure was 14.9%. On to `COc1ccc(/C=N/NC(=O)c2cccnc2)cc1COc1ccc([N+](=O)[O-])c(C)c1`, for which the “hERG current change (%, negative = inhibition) at 1uM” value amounted to 10.3%. With `COC(=O)Cn1c(C(O)c2ccccc2)nc2ccccc21` (stereo not shown) the figure was 13.1%; with `Cc1cc(NC(=O)CSc2nc3ccccc3n2CC(=O)N2CCC(C)CC2)no1`, 7.37%. Consider `Cc1cccc(C)c1NC(=O)CSc1nnc(-c2ccncc2)n1Cc1ccco1`, for which the “hERG current change (%, negative = inhibition) at 1uM” value was -22.5%.

As for `O=C(CCC(=O)c1cccs1)Nc1ncccc1O`, the “hERG current change (%, negative = inhibition) at 1uM” value came out at 13.1%.

On to `O=C(CCc1ccccc1)N/N=C/c1cccc([N+](=O)[O-])c1`, for which the “hERG current change (%, negative = inhibition) at 1uM” value is listed as 4.35%. Turning to `COc1ccccc1CNC(=O)c1cc(-c2ccccc2C)n(CC2CC(c3cccc([N+](=O)[O-])c3)=NO2)n1` (stereo not shown), the “hERG current change (%, negative = inhibition) at 1uM” value is 14.1%.

Take `Nc1nnc(SCc2ccccc2F)s1`: the “hERG current change (%, negative = inhibition) at 1uM” value stood at 6.49%. For `COc1c(-c2ccc(O)c(O)c2)oc2cc(O)cc(O)c2c1=O`, the “hERG current change (%, negative = inhibition) at 1uM” value is reported as 7.9%.

In the case of `C=CCOc1cccc(C2C(C(=O)c3cc4ccccc4o3)=C(O)C(=O)N2c2cc(C)on2)c1` (stereo not shown), the “hERG current change (%, negative = inhibition) at 1uM” value is reported as 19%.

On to `CCn1c(C)c(C(=O)O)c2cc(OC)c3ccccc3c21`, for which the “hERG current change (%, negative = inhibition) at 1uM” value worked out at 10.7%. On to `O=C(O)CCCC(=O)N1CCN(c2ncccn2)CC1`, for which the “hERG current change (%, negative = inhibition) at 1uM” value is given as 20%. With `Cc1cc([N+](=O)[O-])nn1CC(=O)N1CCOCC1` the figure was -3.55%.

In the case of `COc1ccc(C(=O)CCC(=O)NC2=NCCS2)cc1`, the “hERG current change (%, negative = inhibition) at 1uM” value stood at 11.7%. Regarding `CC(C)(C)c1nnc(N/N=C/c2ccc(O)cc2)n(N)c1=O`, the “hERG current change (%, negative = inhibition) at 1uM” value came to 6.09%.

On to `COc1ccc(C(=O)CN2C(=O)c3ccccc3S2(=O)=O)cc1`, for which the “hERG current change (%, negative = inhibition) at 1uM” value amounted to 11.5%. On to `O=C1CSC(=S)N1Cc1cccnc1`, for which the “hERG current change (%, negative = inhibition) at 1uM” value is listed as -0.687%.

As for `Cc1cc(NC(=O)c2ccc(Br)c([N+](=O)[O-])c2)no1`, the “hERG current change (%, negative = inhibition) at 1uM” value was found to be 14%. With `COc1ccc(F)cc1CN1CCN(C(=O)CCC(=O)Nc2nnc(C(C)C)s2)CC1`, the “hERG current change (%, negative = inhibition) at 1uM” value was 5.87%. Take `CCCOC(=O)C1=C(C)NC2=C(C(=O)CCC2)C1c1cc(OC)ccc1OC` (stereo not shown): the “hERG current change (%, negative = inhibition) at 1uM” value was found to be 10.6%. Take `O=C(CCNC(=O)c1ccc(Br)cc1)Nc1cccc(S(=O)(=O)N2CCCCCC2)c1`: the “hERG current change (%, negative = inhibition) at 1uM” value came to 11.9%.

Take `CN(CC(=O)Nc1ccc(N2CCOCC2)cc1)C(=O)c1cn(-c2ccccc2)nc1-c1ccccc1`: the “hERG current change (%, negative = inhibition) at 1uM” value came to 11.4%.

As to `COc1ccc(CNC(=S)NCc2ccc(F)cc2)cc1`, the “hERG current change (%, negative = inhibition) at 1uM” value is recorded as 3.37%. With `CC1CCCCC12NC(=O)N(CC(=O)Nc1cccnc1Cl)C2=O` (stereo not shown), the “hERG current change (%, negative = inhibition) at 1uM” value is 6.41%. For `Cc1cc(C)n(-c2nc3ccccc3nc2N2CCN(C(=O)c3ccc(F)cc3)CC2)n1`, the “hERG current change (%, negative = inhibition) at 1uM” value is reported as -0.0294%. With `COC(=O)c1nn(-c2nc(-c3cccc(OC)c3)cc(C(F)(F)F)n2)cc1[N+](=O)[O-]` the figure was 8.5%. As to `COc1cc(CNCc2cc(OC)c(OC)c(OC)c2)cc(OC)c1.O=C(O)C(=O)O`, the “hERG current change (%, negative = inhibition) at 1uM” value is 12.6%.

For the compound `O=C(Oc1ccc2ccc(O)cc2c1)C1CCCCC1`, the “hERG current change (%, negative = inhibition) at 1uM” value is recorded as 10.7%. Regarding `CC(=O)Nc1ccc(NC(=O)C(C)N(C)CC(=O)Nc2ccccc2Br)cc1` (stereo not shown), the “hERG current change (%, negative = inhibition) at 1uM” value is 7.25%. With `O=C(Cn1c(=O)oc2cc(S(=O)(=O)N3CCCC3)ccc21)N1CCN(C2CCCCC2)CC1` the figure was 3.22%. As to `S=c1[nH]nc(-c2ccc(Br)cc2)n1-c1ccc(Br)cc1`, the “hERG current change (%, negative = inhibition) at 1uM” value was determined as 9.52%. With `Cc1cc(C)cc(N(CC(=O)NC2CCCCC2)C(=O)CCCC(=O)Nc2ccccn2)c1`, the “hERG current change (%, negative = inhibition) at 1uM” value is recorded as 12%. In the case of `Cc1cc(C)n2c(SCc3ccccc3Cl)nnc2n1`, the “hERG current change (%, negative = inhibition) at 1uM” value is 13.5%. On to `CSc1nc(C)cc(-n2ccc(=O)[nH]c2=O)n1`, for which the “hERG current change (%, negative = inhibition) at 1uM” value was 11.8%.

Take `CC1CC2(O)c3no[n+]([O-])c3CCC2N1O` (stereo not shown): the “hERG current change (%, negative = inhibition) at 1uM” value is on record as 9.14%. With `CSc1ncc(CN2CCc3c([nH]c4ccccc34)C2C(C)(C)C)cn1` (stereo not shown) the figure was 13.5%.

For the compound `O=C(C1COc2ccccc2O1)N1CCOCC1` (stereo not shown), the “hERG current change (%, negative = inhibition) at 1uM” value is recorded as 13.6%.

Turning to `NNC(=S)Nc1c(F)cc(F)cc1Br`, the “hERG current change (%, negative = inhibition) at 1uM” value was determined as 13.1%. For the compound `COc1ccc(NCC(=O)N/N=C/c2ccc3c(c2)OCCO3)cc1`, the “hERG current change (%, negative = inhibition) at 1uM” value is on record as 9.38%. With `Cn1c(SCC(=O)Nc2ccc(C(N)=O)cc2)nnc1-c1cccs1` the figure was 22.8%.
